# Some of the results follow.
# B1: PA-IL (Pseudomonas aeruginosa), Q05097 (protein)
# chain: MAWKGEVLANNEAGQVTSIIYNPGDVITIVAAGWASYGPTQKWGPQGDREHPDQGLICHDAFCGALVMKIGNSGTIPVNTGLFRWVAPNNVQGAITLIYNDVPGTYGNNSGSFSVNIGKDQS
# Key:
# Assay in all cases: glycan array binding signal (z-score within array); higher = stronger binding
# Details in all cases: glycan notation: IUPAC condensed, linker removed
# [1] = molecular target: Fuc(a1-3)[Gal(b1-4)]GlcNAc(b1-4)Gal(b1-4)[Fuc(a1-3)]GlcNAc(b1-4)Gal(b1-4)[Fuc(a1-3)]GlcNAc
# In short: (§1)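 Columns mapping to the same glycan were averaged after glycan names were converted to IUPAC-condensed notation. The data come from 3228 arrays in the Consortium for Functional Glycomics database, limited to those with an available protein sequence. Binding is reported as a within-array Z-score averaged across arrays of one protein sequence and across linkers.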
# [2] = molecular target: Fuc(a1-3)[Gal(b1-4)]GlcNAc(b1-6)GalNAc
# In short: as §1
# [3] = molecular target: Fuc(a1-3)[Gal(b1-4)]GlcNAc(b1-6)[Gal(b1-3)GlcNAc(b1-3)]Gal(b1-4)Glc
# In short: as §1
# [4] = molecular target: Fuc(a1-3)[Gal(b1-4)]GlcNAc(b1-6)[Neu5Ac(a2-3)Gal(b1-3)]GalNAc
# In short: as §1
# [5] = molecular target: Fuc(a1-3)[Gal(b1-4)]GlcNAc6S
# In short: as §1
# [6] = molecular target: Fuc(a1-3)[Gal3S(b1-4)]Glc
# In short: as §1
# [7] = molecular target: Fuc(a1-3)[Gal3S(b1-4)]GlcNAc
# In short: as §1
# [8] = molecular target: Fuc(a1-3)[Gal3S(b1-4)]GlcNAc6S
# In short: as §1
# [9] = molecular target: Fuc(a1-3)[GalNAc(b1-4)]GlcNAc
# In short: as §1
# [10] = molecular target: Fuc(a1-3)[GalNAc(b1-4)]GlcNAc6S
# In short: as §1
# Fuc(a1-4)GlcNAc = molecular target: Fuc(a1-4)GlcNAc
# In short: as §1
# Fuc(b1-3)GlcNAc = molecular target: Fuc(b1-3)GlcNAc
# In short: as §1
# Gal(a1-2)Gal = molecular target: Gal(a1-2)Gal
# In short: as §1
# Gal(a1-3)Gal = molecular target: Gal(a1-3)Gal
# In short: as §1
# Gal(a1-3)Gal(b1-3)GlcNAc = molecular target: Gal(a1-3)Gal(b1-3)GlcNAc
# In short: as §1
# [11] = molecular target: Gal(a1-3)Gal(b1-3)GlcNAc(b1-2)Man
# In short: as §1
# [12] = molecular target: Gal(a1-3)Gal(b1-3)GlcNAc(b1-2)Man(a1-3)[Gal(a1-3)Gal(b1-3)GlcNAc(b1-2)Man(a1-6)]Man(b1-4)GlcNAc(b1-4)GlcNAc
# In short: as §1
# [13] = molecular target: Gal(a1-3)Gal(b1-3)GlcNAc(b1-3)GalNAc
# In short: as §1
# [14] = molecular target: Gal(a1-3)Gal(b1-3)GlcNAc(b1-6)GalNAc
# In short: as §1
# [15] = molecular target: Gal(a1-3)Gal(b1-3)[Fuc(a1-4)]GlcNAc(b1-2)Man(a1-3)[Gal(a1-3)Gal(b1-3)[Fuc(a1-4)]GlcNAc(b1-2)Man(a1-6)]Man(b1-4)GlcNAc(b1-4)GlcNAc
# In short: as §1
# Gal(a1-3)Gal(b1-4)Glc = molecular target: Gal(a1-3)Gal(b1-4)Glc
# In short: as §1
# Gal(a1-3)Gal(b1-4)GlcNAc = molecular target: Gal(a1-3)Gal(b1-4)GlcNAc
# In short: as §1
# [16] = molecular target: Gal(a1-3)Gal(b1-4)GlcNAc(b1-2)Man
# In short: as §1
# [17] = molecular target: Gal(a1-3)Gal(b1-4)GlcNAc(b1-2)Man(a1-3)[Gal(a1-3)Gal(b1-4)GlcNAc(b1-2)Man(a1-6)]Man(b1-4)GlcNAc(b1-4)GlcNAc
# In short: as §1
# [18] = molecular target: Gal(a1-3)Gal(b1-4)GlcNAc(b1-3)GalNAc
# In short: as §1
# [19] = molecular target: Gal(a1-3)Gal(b1-4)GlcNAc(b1-6)GalNAc
# In short: as §1
# [20] = molecular target: Gal(a1-3)Gal(b1-4)[Fuc(a1-3)]GlcNAc
# In short: as §1
# [21] = molecular target: Gal(a1-3)Gal(b1-4)[Fuc(a1-3)]GlcNAc(b1-2)Man(a1-3)[Gal(a1-3)Gal(b1-4)[Fuc(a1-3)]GlcNAc(b1-2)Man(a1-6)]Man(b1-4)GlcNAc(b1-4)GlcNAc
# In short: as §1
# Gal(a1-3)GalNAc = molecular target: Gal(a1-3)GalNAc
# In short: as §1
# [22] = molecular target: Gal(a1-3)[Gal(a1-4)]Gal(b1-4)GlcNAc
# In short: as §1
# [23] = molecular target: Gal(a1-4)Gal(b1-3)GlcNAc(b1-2)Man(a1-3)[Gal(a1-4)Gal(b1-3)GlcNAc(b1-2)Man(a1-6)]Man(b1-4)GlcNAc(b1-4)GlcNAc
# In short: as §1
# Gal(a1-4)Gal(b1-4)Glc = molecular target: Gal(a1-4)Gal(b1-4)Glc
# In short: as §1
# Gal(a1-4)Gal(b1-4)GlcNAc = molecular target: Gal(a1-4)Gal(b1-4)GlcNAc
# In short: as §1
# [24] = molecular target: Gal(a1-4)Gal(b1-4)GlcNAc(b1-2)Man(a1-3)[Gal(a1-4)Gal(b1-4)GlcNAc(b1-2)Man(a1-6)]Man(b1-4)GlcNAc(b1-4)GlcNAc
# In short: as §1
# [25] = molecular target: Gal(a1-4)Gal(b1-4)GlcNAc(b1-3)Gal(b1-4)Glc
# In short: as §1
# Gal(a1-4)GlcNAc = molecular target: Gal(a1-4)GlcNAc
# In short: as §1
# Gal(a1-6)Glc = molecular target: Gal(a1-6)Glc
# In short: as §1
# Gal(b1-2)Gal = molecular target: Gal(b1-2)Gal
# In short: as §1
# Gal(b1-3)Gal = molecular target: Gal(b1-3)Gal
# In short: as §1
# Gal(b1-3)Gal(b1-4)GlcNAc = molecular target: Gal(b1-3)Gal(b1-4)GlcNAc
# In short: as §1
# [26] = molecular target: Gal(b1-3)Gal(b1-4)GlcNAc(b1-2)Man(a1-3)[Gal(b1-3)Gal(b1-4)GlcNAc(b1-2)Man(a1-6)]Man(b1-4)GlcNAc(b1-4)GlcNAc
# In short: as §1
# Gal(b1-3)GalNAc = molecular target: Gal(b1-3)GalNAc
# In short: as §1
# [27] = molecular target: Gal(b1-3)GalNAc(a1-3)[Fuc(a1-2)]Gal(b1-4)Glc
# In short: as §1
# [28] = molecular target: Gal(b1-3)GalNAc(a1-3)[Fuc(a1-2)]Gal(b1-4)GlcNAc
# In short: as §1
# Gal(b1-3)GalNAc(b1-3)Gal = molecular target: Gal(b1-3)GalNAc(b1-3)Gal
# In short: as §1
binder,measurement,setting,value
B1,glycan array binding signal (z-score),[1],-0.231
same,glycan array binding signal (z-score),[2],-0.208
same,glycan array binding signal (z-score),[3],-0.23
same,glycan array binding signal (z-score),[4],-0.22
same,glycan array binding signal (z-score),[5],-0.208
same,glycan array binding signal (z-score),[6],-0.225
same,glycan array binding signal (z-score),[7],-0.212
same,glycan array binding signal (z-score),[8],-0.224
same,glycan array binding signal (z-score),[9],-0.229
same,glycan array binding signal (z-score),[10],-0.227
same,glycan array binding signal (z-score),Fuc(a1-4)GlcNAc,-0.223
same,glycan array binding signal (z-score),Fuc(b1-3)GlcNAc,-0.219
same,glycan array binding signal (z-score),Gal(a1-2)Gal,1.54
same,glycan array binding signal (z-score),Gal(a1-3)Gal,1.68
same,glycan array binding signal (z-score),Gal(a1-3)Gal(b1-3)GlcNAc,1.62
same,glycan array binding signal (z-score),[11],2.61
same,glycan array binding signal (z-score),[12],0.015
same,glycan array binding signal (z-score),[13],0.581
same,glycan array binding signal (z-score),[14],0.533
same,glycan array binding signal (z-score),[15],0.34
same,glycan array binding signal (z-score),Gal(a1-3)Gal(b1-4)Glc,1.89
same,glycan array binding signal (z-score),Gal(a1-3)Gal(b1-4)GlcNAc,5.08
same,glycan array binding signal (z-score),[16],3.39
same,glycan array binding signal (z-score),[17],6.97
same,glycan array binding signal (z-score),[18],3.06
same,glycan array binding signal (z-score),[19],3.31
same,glycan array binding signal (z-score),[20],5.02
same,glycan array binding signal (z-score),[21],1.82
same,glycan array binding signal (z-score),Gal(a1-3)GalNAc,1.32
same,glycan array binding signal (z-score),[22],6.55
same,glycan array binding signal (z-score),[23],7.29
same,glycan array binding signal (z-score),Gal(a1-4)Gal(b1-4)Glc,2.27
same,glycan array binding signal (z-score),Gal(a1-4)Gal(b1-4)GlcNAc,4.79
same,glycan array binding signal (z-score),[24],8.23
same,glycan array binding signal (z-score),[25],5.73
same,glycan array binding signal (z-score),Gal(a1-4)GlcNAc,3.63
same,glycan array binding signal (z-score),Gal(a1-6)Glc,0.538
same,glycan array binding signal (z-score),Gal(b1-2)Gal,-0.12
same,glycan array binding signal (z-score),Gal(b1-3)Gal,-0.219
same,glycan array binding signal (z-score),Gal(b1-3)Gal(b1-4)GlcNAc,-0.173
same,glycan array binding signal (z-score),[26],7.65
same,glycan array binding signal (z-score),Gal(b1-3)GalNAc,-0.229
same,glycan array binding signal (z-score),[27],-0.238
same,glycan array binding signal (z-score),[28],-0.23
same,glycan array binding signal (z-score),Gal(b1-3)GalNAc(b1-3)Gal,-0.221
